According to PubChem BioAssay AID588342 (National Center for Advancing Translational Sciences (NCATS), 2011):
The campaign covered roughly 360,000 compounds. About 25,000 (6.9%) were called active. The shares of active, inactive and inconclusive entries below differ from those in the screen. Calls follow the shape of the dose curve; as a rule, active = well fitted inhibition curve with a large enough effect; inconclusive = small, poorly fitted or top-dose-only effect; inactive = flat fitted curve, though single readings scatter. Potencies of inconclusive entries are doubtful fits and often do not repeat.

Molecular target: Luciferin 4-monooxygenase (Photinus pyralis) (UniProt P08659)
Assay: qHTS profiling assay for firefly luciferase inhibitor/activator using purifed enzyme and Km concentrations of substrates (counterscreen for miR-21 project); also: nearly all actives have a fitted effect of over 55% in size;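 as to activity change, negative = inhibition: plate controls were vehicle for no effect and reference inhibitor for full effect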
Settings: purified FLuc, luminescence inhibition; series mostly up to 57.5 µM; activity change, negative = inhibition: at the top concentration
Procedure, shortened: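 Biochemical qHTS of compounds, final roughly 60 µM downward over six points, against 10 nM purified firefly luciferase using Km concentrations of substrates (10 uM D-luciferin, 10 uM ATP) in Tris acetate pH 7.5 buffer; luminescence output.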
Potency is read from the fitted curve at half-maximal effect; tags tell the direction and shape of the fitted curve.

UniProt P08659, sequence (P08659 whole entry, looked up): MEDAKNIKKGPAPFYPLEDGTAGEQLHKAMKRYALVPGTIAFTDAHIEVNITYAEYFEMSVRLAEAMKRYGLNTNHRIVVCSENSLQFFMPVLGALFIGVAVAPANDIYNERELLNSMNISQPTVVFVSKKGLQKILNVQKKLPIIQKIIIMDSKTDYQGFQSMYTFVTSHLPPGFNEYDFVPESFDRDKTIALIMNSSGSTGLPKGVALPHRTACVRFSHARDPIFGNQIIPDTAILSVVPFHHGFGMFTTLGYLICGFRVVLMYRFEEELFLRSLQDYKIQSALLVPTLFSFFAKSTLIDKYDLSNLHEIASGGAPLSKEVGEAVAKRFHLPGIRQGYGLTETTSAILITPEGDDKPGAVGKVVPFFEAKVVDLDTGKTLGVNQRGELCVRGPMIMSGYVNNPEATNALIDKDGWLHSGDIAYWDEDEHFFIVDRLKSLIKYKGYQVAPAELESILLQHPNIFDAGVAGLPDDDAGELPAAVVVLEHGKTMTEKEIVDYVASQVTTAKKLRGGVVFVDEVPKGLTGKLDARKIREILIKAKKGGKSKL

SMILES | Potency | activity change, negative = inhibition
O=C(O)c1cc(NS(=O)(=O)c2ccc(NC3CCCCC3)c([N+](=O)[O-])c2)cc(C(=O)O)c1 | inconclusive: 37.9 µM [inhibitor, partial curve, poor fit] | –
COc1ccc(NC(=S)N2CCC(c3ccc(C)cc3)C2)cc1 (stereo unspecified) | inconclusive: 21.3 µM [inhibitor, partial curve] | –
CSc1cccc(Nc2cc(C(=O)NC3CCCCC3)c3ccccc3n2)c1 | inconclusive: 13.5 µM [inhibitor, partial curve] | –
CCOc1ccc(CNc2nc3ccccc3n2C)cc1 | active: 12 µM | –
CCOC(=O)c1c(-c2ccc(C)o2)csc1NC(=O)CN(C)CC(=O)Nc1ccc(C)cc1 | – | inactive: 0.589%
COc1ccccc1NC(=O)CC12CC3CC(CC(Br)(C3)C1)C2 | – | inactive: -0.446%
CCCCCCSc1nc(N)c2c3c(sc2n1)CCCC3C (stereo unspecified) | inconclusive: 26.9 µM [inhibitor, partial curve, poor fit] | –
C/C(CC(=O)Nc1ccc2c(c1)OCCO2)=N\NC(=O)COc1cccc(C)c1 | inconclusive: 37.9 µM [inhibitor, partial curve, poor fit] | –
C[N+](C)(C)CCCCCC(=O)/C=N/O | – | inactive: 4.04%
CC(=O)Nc1cccc(OCC(=O)Nc2sccc2C(N)=O)c1 | active: 8.49 µM | –
Cc1ccc(OCC(=O)OCc2cc(=O)n3nc(C4CC4)sc3n2)cc1C | – | inactive: -5.73%
COc1ccc(/C=C/C(=O)c2ccccc2)cc1COc1ccccc1F | inconclusive: 19 µM [inhibitor, partial curve, poor fit] | –
COc1ccc(/C=C2\CCc3c2nc2ccccc2c3C(=O)O)cc1OC | active: 0.301 µM | –
O=C(N/N=C/c1ccc(OCc2cnc(Cl)s2)cc1)c1ccncc1 | inconclusive: 26.9 µM [inhibitor, single point] | –
CCc1ccc2c(c1)C(=O)C(=O)N2CCS(=O)(=O)c1ccccc1 | inconclusive: 15.1 µM [inhibitor, partial curve] | –
Cc1ccccc1[C@@H](NC(=O)OC(C)(C)C)C(=O)OC(C)(C)C | – | inactive: 0.7%
CCSC(=S)c1c(C)[nH]n(-c2ccccc2)c1=O | inconclusive: 26.9 µM [inhibitor, single point] | –
CC(=O)Nc1ccc(NC(=O)CSc2ncc(C(=O)Nc3ccccc3)c(=O)n2C)cc1 | inconclusive: 13.5 µM [inhibitor, partial curve, poor fit] | –
CCOC(=O)C1=C(N)OC2=C(C(=O)CC(C)(C)C2)C1c1ccc(CC)s1 (stereo unspecified) | inconclusive: 12 µM [inhibitor, partial curve, poor fit] | –
CCOC(=O)c1sc(NC(=O)c2cc(-c3ccc(C)cc3)nc3ccccc23)c(C#N)c1C | active: 12 µM | –
O=C(CN1C(=O)COc2ccc(Cl)cc21)Nc1cccc(C(=O)O)c1 | – | inactive: -13.9%
FC(F)(F)c1cccc(-c2nc(-c3ccncc3)no2)c1 | active: 15.1 µM | –
Cc1ccc(-c2c(C(=O)O)c(C(=O)O)c3n2CCC3)cc1 | inconclusive: 10.7 µM [inhibitor, partial curve] | –
COc1cccc(C(=O)NNC(=S)NC2CCCCC2)c1 | inconclusive: 19 µM [inhibitor, partial curve, poor fit] | –

SMILES | Potency | activity change, negative = inhibition
CC1CCc2nc3ncn(Cc4cccc(F)c4)c(=O)c3cc2C1 (stereo unspecified) | inconclusive: 21.3 µM [inhibitor, partial curve, poor fit] | –
Cc1ccc(N/C=C(\C2OC(=O)c3ccccc32)[N+](=O)[O-])c(C)c1 (stereo unspecified) | inconclusive: 23.9 µM [inhibitor, partial curve, poor fit] | –
O=C(CSc1nnc2ccc3ccccc3n12)N1CCOCC1 | inconclusive: 30.1 µM [inhibitor, partial curve] | –
NC(=O)CSCc1nc2ccccc2s1 | inconclusive: 26.9 µM [inhibitor, single point] | –
Cc1ccc(-c2nc3ccccc3o2)cc1NC(=O)c1ccc2c(c1)OCO2 | inconclusive: 9.53 µM [inhibitor, partial curve, poor fit] | –
CC1CCCC(NC(=O)COC(=O)c2ccccc2[N+](=O)[O-])C1C (stereo unspecified) | inconclusive: 37.9 µM [inhibitor, single point] | –
c1ccc2nc(SCc3cn4ccccc4n3)cnc2c1 | inconclusive: 21.3 µM [inhibitor, single point] | –
CNC(=O)C1CCC(Cn2c(=O)c3sccc3n(CC(=O)Nc3ccccc3)c2=O)CC1 (stereo unspecified) | – | inactive: 3.49%
O=C(Nc1ncc(Cc2ccccc2Cl)s1)c1ccc2c(c1)CC(c1ccccc1)OC2=O (stereo unspecified) | – | inactive: -0.771%
Cc1ccc(C(=O)COC(=O)c2ccc3c(c2)C(=O)N(c2cccc4ncccc24)C3=O)cc1 | inconclusive: 1.07 µM [inhibitor, full curve] | –
COc1cccc(CNS(=O)(=O)c2c(C(=O)N3CCCC3)c(C)n(C)c2C)c1 | – | inactive: 2.27%
COc1ccc(CCNC(=O)C(=O)NCC2OCCN2S(=O)(=O)c2ccc3c(c2)OCCO3)cc1 (stereo unspecified) | – | inactive: -3.86%
Cc1ccc(OCCSc2nc3ccccc3n2CCC(=O)O)cc1 | inconclusive: 30.1 µM [inhibitor, single point] | –
CCOC(=O)c1c(C)nc2cc(C)ccn12 | inconclusive: 33.8 µM [inhibitor, partial curve, poor fit] | –
CSc1ncc(S(=O)(=O)c2ccccc2)c(=O)[nH]1 | inconclusive: 37.9 µM [inhibitor, partial curve, poor fit] | –
COc1ccc(-c2noc(CC(=O)N(C)c3cc(Cl)c(OC)cc3OC)n2)cc1 | – | inactive: 4.9%
CSc1ccccc1NC(=O)c1ccc([N+](=O)[O-])cc1 | inconclusive: 21.3 µM [inhibitor, partial curve, poor fit] | –
Cc1ccc(C(=O)CCC(=O)NC2=NCCS2)cc1 | inconclusive: 21.3 µM [inhibitor, partial curve, poor fit] | –
CCOc1ccc(/C=C2\SC(=S)N(CCCC(=O)NCCCN3CCOCC3)C2=O)cc1 | active: 9.53 µM | –
COc1ccc(-n2c(C)cc(C(=O)COC(=O)c3ccc(O)cc3O)c2C)cc1 | inconclusive: 21.3 µM [inhibitor, single point] | –
CC(=O)Nc1ccc2c(c1)c1ccccc1n2C(C)=O | inconclusive: 5.36 µM [inhibitor, partial curve, poor fit] | –
Cn1c(=O)c(=O)n(C)c2cc(N3CCCC3)c(NC(=O)c3ccccc3Cl)cc21 | – | inactive: -2.14%
COc1ccc(C(=O)NCc2nnc(SCC(=O)NC3=NCCS3)n2C)cc1 | inconclusive: 30.1 µM [inhibitor, single point] | –
O=[N+]([O-])c1cccc(N=Cc2sc3ccccc3c2O)c1 | inconclusive: 0.601 µM [inhibitor, partial curve, poor fit] | –

SMILES | Potency | activity change, negative = inhibition
CCN1CCN(C(=O)c2cc(-c3ccco3)nc3ccccc23)CC1 | inconclusive: 23.9 µM [inhibitor, partial curve] | –
NC(=O)CC(NC(=O)Cc1cccc2ccccc12)c1ccc(NCCc2ccccc2F)c([N+](=O)[O-])c1 (stereo unspecified) | – | inactive: -0.109%
O=C(Nc1ccccc1)c1ccc(Cl)c(S(=O)(=O)Nc2ccccc2)c1 | inconclusive: 23.9 µM [inhibitor, partial curve, poor fit] | –
CC[n+]1c(P(=O)([O-])c2ccccc2)[nH]c2ccccc21 | – | inactive: 3.37%
O=C(CN1CCSc2ccccc21)NCCCc1ccccc1 | inconclusive: 26.9 µM [inhibitor, partial curve] | –
CCOC(=O)c1c[nH]c2c3c(ccc2c1=O)CCCC3 | inconclusive: 19 µM [inhibitor, partial curve] | –
COc1ccc(CN(CCC(c2ccccc2)c2ccco2)C(=O)c2ccco2)cc1 (stereo unspecified) | – | inactive: -0.839%
COc1ccc(-c2cc(C(=O)Nc3c(C)nn(Cc4ccccc4)c3C)no2)cc1 | – | inactive: -0.681%
Clc1cccc(Cl)c1CSc1cc2c(nn1)-c1ccccc1CC2 | inconclusive: 13.5 µM [inhibitor, partial curve] | –
CCCCCCCCC(NC(=O)c1ccc(C#N)cc1)C(=O)NCCC (stereo unspecified) | – | inactive: -1.04%
O=C(NCCC1CC1(Cl)Cl)Nc1ccccc1 (stereo unspecified) | inconclusive: 26.9 µM [inhibitor, partial curve, poor fit] | –
CCC(=O)Nc1ccc(NC(=O)c2ccccn2)cn1 | active: 10.7 µM | –
CCCCN(CC)CCNC(=O)CN1C(=O)COc2ccc(S(=O)(=O)N3CCOCC3)cc21 | – | inactive: -0.0407%
COc1ccc(NC(=O)NC2CCCCC2C)cc1 (stereo unspecified) | inconclusive: 37.9 µM [inhibitor, partial curve, poor fit] | –
CCCN1CCc2c(sc(NC(=S)NC(=O)c3ccccc3)c2C#N)C1 | inconclusive: 37.9 µM [inhibitor, partial curve, poor fit] | –
Nc1ncncc1-c1ccc(Cl)cc1 | – | inactive: 5.52%
Cc1ccc(NC(=S)N2CCN(Cc3ccccc3)CC2)c(C)c1 | inconclusive: 26.9 µM [inhibitor, single point] | –
O=C(NCc1ccccc1Cl)c1cc([N+](=O)[O-])ccc1Cl | inconclusive: 0.0269 µM [inhibitor, partial curve, poor fit] | –
O=C(NCc1cccnc1)c1ccc(S(=O)(=O)Nc2ccccc2)cc1 | – | inactive: -1.6%
O=[N+]([O-])c1ccc(/C=N/Nc2ncc(-c3ccccc3)cn2)cc1 | – | inactive: -1.63%
COc1ccc2oc(=O)c(C(=O)NCc3ccco3)cc2c1 | inconclusive: 33.8 µM [inhibitor, single point] | –
Oc1ccccc1-c1cc(-c2ccc3c(c2)OCCO3)n[nH]1 | active: 0.338 µM | –
CC(=O)c1ccc(NC(=O)CN2CCCC2)cc1 | inconclusive: 19 µM [inhibitor, partial curve] | –
